Patent US11457629B2, “Heteroarylphenylaminoquinolines and analogues” (Bayer Aktiengesellschaft, priority 2017, dated 2022)
Marks after values point to notes of the source that are not given here.

How it was run: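 Reversed-phase HPLC under acidic conditions (0.1% formic acid), following EEC directive 79/831 Annex V.A8. Log P was derived from retention time by linear interpolation between straight-chain alkan-2-ones (C3–C16) of known Log P. Where several values arose within one method, all are listed, joined by "+".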

## Cn1cncc1-c1cc(F)ccc1Nc1cnc2c(C(F)(F)F)cccc2c1 [Example I-249]
  Log P: 1.96 ^[a]

## Cc1nc2c(F)c(F)ccc2cc1Nc1ccc(F)cc1-c1ccnn1CC(C)C [Example I-325]
  Log P: 3.99 ^[a]

## CCn1nccc1-c1c(Nc2cnc3ccccc3c2C)ccc(F)c1F [Example I-261]
  Log P: 2.39 ^[a]

## Cn1nccc1-c1cc(Cl)ccc1Nc1cnc2c(C(F)(F)F)cccc2c1 [Example I-222]
  logP: 4.03 ^[a]

## Cc1nc2ccccc2cc1Nc1cccc(F)c1-c1ccnn1C [Example I-030]
  logP: 1.79 ^[a]

## Fc1ccc2nc(Nc3ccccc3-c3ccnn3CCc3ccccc3)cnc2c1F [Example I-136]
  logP: 4.27 ^[a]

## Cc1nc2c(F)cccc2cc1Nc1ccccc1C1=NOC(C)(C)C1 [Example I-038]
  logP: 4.16 ^[a]

## CCn1nccc1-c1c(F)cccc1Nc1cnc2c(F)c(F)ccc2c1 [Example I-088]
  logP: 3.15 ^[a]

## Cc1nc2c(F)c(F)ccc2cc1Nc1cccc(F)c1-c1ccnn1Cc1ccccc1 [Example I-299]
  Log P: 4.03 ^[a]

## Fc1cccc2cc(Nc3ccccc3-c3ccnn3-c3ccccc3)cnc12 [Example I-108]
  logP: 3.29 ^[a]

## Cc1cnn(C)c1-c1c(F)cccc1Nc1c(C)nc2c(F)c(F)ccc2c1C [Example I-194]
  logP: 2.86 ^[a]

## Cc1nc2ccccc2cc1Nc1cccc(F)c1-c1ccn(C)n1 [Example I-026]
  logP: 2.43 ^[a]

## Cn1nccc1-c1c(F)cccc1Nc1cnc2ccnn2c1 [Example I-094]
  logP: 2.00 ^[a]

## CCn1nccc1-c1c(F)c(F)cc(F)c1Nc1nc2ccccc2nc1C [Example I-328]
  Log P: 2.84 ^[a]

## CCCn1nccc1-c1ccccc1Cc1cc2ccc(F)c(F)c2nc1C [Example I-293]
  Log P: 3.72 ^[a]

## Cc1nc2c(F)c(F)ccc2cc1Nc1ccc(Cl)cc1-c1ccnn1C [Example I-230]
  logP: 3.51 ^[a]

## Cc1cc(C)c(Nc2cc3ccc(F)c(F)c3nc2C)c(-c2c(Br)cnn2C)c1F [Example I-115]
  logP: 3.99 ^[a]

## CC(C)(C)[Si](C)(C)OCc1ccnn1-c1c(F)cccc1Nc1cnc2ccccc2c1 [Example I-075]
  logP: 4.93 ^[a]

## Cc1nc2c(F)c(F)ccc2cc1Nc1cccc(F)c1-c1ccnn1CCc1ccccc1 [Example I-122]
  logP: 4.34 ^[a]

## CCn1ncc(F)c1-c1c(F)ccc(F)c1Nc1cnc2ccccc2c1C [Example I-263]
  Log P: 2.25 ^[a]

## Cn1nccc1-c1ccccc1Nc1cnc2c(F)c(F)ccc2c1 [Example I-152]
  logP: 2.80 ^[a]

## Cc1nc2c(F)c(F)ccc2cc1Cc1ccccc1-c1c(Cl)cnn1C [Example I-294]
  Log P: 3.55 ^[a]

## Cc1nc2c(F)c(F)ccc2cc1Nc1ccc(F)cc1-c1ccnn1C [Example I-147]
  logP: 2.96 ^[a]

## Cc1nc2c(F)c(F)ccc2cc1Nc1ccc(F)c(F)c1-c1ccnn1C [Example I-234]
  logP: 3.27 ^[a]

## Cn1nccc1-c1ccccc1Cc1cnc2c(Cl)cccc2c1 [Example I-340]
  Log P: 2.94 ^[a]

## Cc1nc2c(F)c(F)ccc2c(C)c1Nc1cccc(F)c1-c1ccnn1C [Example I-061]
  logP: 3.31 ^[a]

## Fc1cccc(Nc2cnc3c(F)cccc3c2)c1-c1ccnn1CCc1ccccc1 [Example I-124]
  logP: 3.29 ^[a]

## CCn1nccc1-c1c(Nc2cnc3c(F)c(F)ccc3c2F)ccc(F)c1F [Example I-268]
  Log P: 3.49 ^[a]

## Cc1nc2c(F)c(F)ccc2cc1Nc1ccccc1C1=NOCC1C (racemic) [Example I-058]
  logP: 4.04 ^[a]

## Cn1nccc1-c1ccccc1Nc1cnc2c(F)c(F)ccc2n1 [Example I-174]
  logP: 2.84 ^[a]

## Cc1nc2c(F)c(F)ccc2nc1Cc1ccccc1-c1ccnn1Cc1ccccc1 [Example I-342]
  Log P: 4.15 ^[a]

## Cc1ccc(F)c(-c2ccnn2C)c1Nc1nc2ccccc2nc1C [Example I-176]
  logP: 2.43 ^[a]

## CCC1=NOC(c2ccccc2Nc2cnc3ccccc3c2)C1 (stereo not drawn) [Example I-015]
  logP: 2.90 ^[b]

## CC(C)n1nccc1-c1c(F)cccc1Nc1cnc2c(F)c(F)ccc2n1 [Example I-105]
  logP: 3.85 ^[a]

## Fc1cccc(Nc2cnc3nccn3c2)c1-c1ccnn1CCc1ccccc1 [Example I-120]
  logP: 1.79 ^[a]

## Cc1cccc2cc(Nc3ccc(Cl)cc3-c3ccnn3C)cnc12 [Example I-225]
  logP: 3.13 ^[a]

## Fc1ccc(Nc2cnc3c(F)c(F)ccc3c2)c(-c2ccnn2CCc2ccccc2)c1 [Example I-183]
  logP: 3.97 ^[a]

## CCn1nccc1-c1c(F)ccc(F)c1Nc1nc2ccccc2nc1C [Example I-310]
  Log P: 2.61 ^[a]

## Cc1nc2c(F)c(F)ccc2nc1Nc1cccc(F)c1-c1ccnn1C(C)C [Example I-104]
  logP: 4.21 ^[a]

## Cn1cncc1-c1cc(F)ccc1Nc1cnc2ccccc2c1 [Example I-244]
  logP: 1.11 ^[a]

## Cc1nc2ccccc2cc1Nc1cccc(F)c1-c1ccn(C(C)C)n1 [Example I-028]
  logP: 3.09 ^[a]

## CCC1=NOC(c2ccccc2Nc2cnc3c(F)cccc3c2)C1 (stereo not drawn) [Example I-018]
  logP: 2.98 ^[b]

## Cc1ccc(Nc2cnc3ccccc3c2C)c(-c2ccnn2C)c1 [Example I-216]
  logP: 1.86 ^[a]

## Cn1nccc1-c1ccccc1Nc1cnc2ccccc2c1 [Example I-007]
  logP: 1.90 ^[a]

## C=C(C)c1ccnn1-c1c(F)cccc1Nc1cnc2ccccc2c1 [Example I-079]
  logP: 2.95 ^[a]

## Cc1c(Nc2ccc(F)cc2-c2ccnn2C)cnc2ccccc12 [Example I-157]
  logP: 1.72 ^[a]

## Cc1cc(-c2c(F)cccc2Nc2cc3ccc(F)c(F)c3nc2C)n(C)n1 [Example I-107]
  logP: 3.23 ^[a]

## Fc1ccc2cc(Nc3ccccc3-c3ccnn3Cc3ccccc3)cnc2c1F [Example I-098]
  logP: 3.76 ^[a]
